# Results from the supplement of paper PMC8728848.
# The list shows a part of the results.
# Tests used:
# Experiment in all cases: glycan array binding signal (z-score within array); higher = stronger binding
# Conditions in all cases: glycan notation: IUPAC condensed, linker removed
# [1] = target: Neu5Ac(a2-3)Gal(b1-4)GlcNAc(b1-2)Man(a1-3)[Neu5Ac(a2-6)Gal(b1-4)GlcNAc(b1-2)Man(a1-6)]Man(b1-4)GlcNAc(b1-4)GlcNAc
# Outline: (§1)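 Glycan array binding is given as a within-array Z-score, which can be read as non-binding when negative. The arrays, 3228 of them, came from the Consortium for Functional Glycomics database and were retained only where the protein sequence was available. Z-scores were averaged across arrays of the same protein sequence at different concentrations or buffers and across linkers.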
# [2] = target: Neu5Ac(a2-3)Gal(b1-4)GlcNAc(b1-2)[Neu5Ac(a2-3)Gal(b1-4)GlcNAc(b1-4)]Man(a1-3)[GlcNAc(b1-4)][Neu5Ac(a2-3)Gal(b1-4)GlcNAc(b1-2)[Neu5Ac(a2-3)Gal(b1-4)GlcNAc(b1-6)]Man(a1-6)]Man(b1-4)GlcNAc(b1-4)GlcNAc
# Outline: as §1
# [3] = target: Neu5Ac(a2-3)Gal(b1-4)GlcNAc(b1-2)[Neu5Ac(a2-3)Gal(b1-4)GlcNAc(b1-4)]Man(a1-3)[GlcNAc(b1-4)][Neu5Ac(a2-3)Gal(b1-4)GlcNAc(b1-4)Man(a1-6)]Man(b1-4)GlcNAc(b1-4)GlcNAc
# Outline: as §1
# [4] = target: Neu5Ac(a2-3)Gal(b1-4)GlcNAc(b1-2)[Neu5Ac(a2-3)Gal(b1-4)GlcNAc(b1-6)]Man(a1-6)[Neu5Ac(a2-3)Gal(b1-4)GlcNAc(b1-2)Man(a1-3)][GlcNAc(b1-4)]Man(b1-4)GlcNAc(b1-4)GlcNAc
# Outline: as §1
# [5] = target: Neu5Ac(a2-3)Gal(b1-4)GlcNAc(b1-3)Gal
# Outline: as §1
# [6] = target: Neu5Ac(a2-3)Gal(b1-4)GlcNAc(b1-3)Gal(b1-3)GlcNAc
# Outline: as §1
# [7] = target: Neu5Ac(a2-3)Gal(b1-4)GlcNAc(b1-3)Gal(b1-4)GlcNAc
# Outline: as §1
# [8] = target: Neu5Ac(a2-3)Gal(b1-4)GlcNAc(b1-3)Gal(b1-4)GlcNAc(b1-2)Man(a1-3)[Neu5Ac(a2-3)Gal(b1-4)GlcNAc(b1-3)Gal(b1-4)GlcNAc(b1-2)Man(a1-6)]Man(b1-4)GlcNAc(b1-4)GlcNAc
# Outline: as §1
# [9] = target: Neu5Ac(a2-3)Gal(b1-4)GlcNAc(b1-3)Gal(b1-4)GlcNAc(b1-3)Gal(b1-4)GlcNAc
# Outline: as §1
# [10] = target: Neu5Ac(a2-3)Gal(b1-4)GlcNAc(b1-3)Gal(b1-4)GlcNAc(b1-3)Gal(b1-4)GlcNAc(b1-2)Man(a1-3)[Neu5Ac(a2-3)Gal(b1-4)GlcNAc(b1-3)Gal(b1-4)GlcNAc(b1-3)Gal(b1-4)GlcNAc(b1-2)Man(a1-6)]GalNAc
# Outline: as §1
# [11] = target: Neu5Ac(a2-3)Gal(b1-4)GlcNAc(b1-3)Gal(b1-4)GlcNAc(b1-3)GalNAc
# Outline: as §1
# [12] = target: Neu5Ac(a2-3)Gal(b1-4)GlcNAc(b1-3)Gal(b1-4)GlcNAc(b1-3)[Neu5Ac(a2-3)Gal(b1-4)GlcNAc(b1-3)Gal(b1-4)GlcNAc(b1-6)]GalNAc
# Outline: as §1
# [13] = target: Neu5Ac(a2-3)Gal(b1-4)GlcNAc(b1-3)Gal(b1-4)GlcNAc(b1-6)[Gal(b1-3)]GalNAc
# Outline: as §1
# [14] = target: Neu5Ac(a2-3)Gal(b1-4)GlcNAc(b1-3)Gal(b1-4)[Fuc(a1-3)]GlcNAc
# Outline: as §1
# [15] = target: Neu5Ac(a2-3)Gal(b1-4)GlcNAc(b1-3)GalNAc
# Outline: as §1
# [16] = target: Neu5Ac(a2-3)Gal(b1-4)GlcNAc(b1-3)[Neu5Ac(a2-3)Gal(b1-4)GlcNAc(b1-6)]GalNAc
# Outline: as §1
# [17] = target: Neu5Ac(a2-3)Gal(b1-4)GlcNAc(b1-6)GalNAc
# Outline: as §1
# [18] = target: Neu5Ac(a2-3)Gal(b1-4)GlcNAc(b1-6)[Gal(b1-3)]GalNAc
# Outline: as §1
# [19] = target: Neu5Ac(a2-3)Gal(b1-4)GlcNAc(b1-6)[Neu5Ac(a2-3)Gal(b1-3)]GalNAc
# Outline: as §1
# [20] = target: Neu5Ac(a2-3)Gal(b1-4)GlcNAc6S
# Outline: as §1
# [21] = target: Neu5Ac(a2-3)Gal(b1-4)[Fuc(a1-3)]GlcNAc
# Outline: as §1
# [22] = target: Neu5Ac(a2-3)Gal(b1-4)[Fuc(a1-3)]GlcNAc(b1-2)Man
# Outline: as §1
# [23] = target: Neu5Ac(a2-3)Gal(b1-4)[Fuc(a1-3)]GlcNAc(b1-3)Gal
# Outline: as §1
# [24] = target: Neu5Ac(a2-3)Gal(b1-4)[Fuc(a1-3)]GlcNAc(b1-3)Gal(b1-4)GlcNAc
# Outline: as §1
# [25] = target: Neu5Ac(a2-3)Gal(b1-4)[Fuc(a1-3)]GlcNAc(b1-3)Gal(b1-4)[Fuc(a1-3)]GlcNAc(b1-3)Gal(b1-4)[Fuc(a1-3)]GlcNAc
# Outline: as §1
# [26] = target: Neu5Ac(a2-3)Gal(b1-4)[Fuc(a1-3)]GlcNAc(b1-3)GalNAc
# Outline: as §1
# [27] = target: Neu5Ac(a2-3)Gal(b1-4)[Fuc(a1-3)]GlcNAc(b1-6)[Gal(b1-3)]GalNAc
# Outline: as §1
# [28] = target: Neu5Ac(a2-3)Gal(b1-4)[Fuc(a1-3)]GlcNAc(b1-6)[Neu5Ac(a2-3)Gal(b1-3)]GalNAc
# Outline: as §1
# [29] = target: Neu5Ac(a2-3)Gal(b1-4)[Fuc(a1-3)]GlcNAc6S
# Outline: as §1
# [30] = target: Neu5Ac(a2-3)Gal6S(b1-4)GlcNAc
# Outline: as §1
# [31] = target: Neu5Ac(a2-3)Gal6S(b1-4)[Fuc(a1-3)]GlcNAc
# Outline: as §1
# Neu5Ac(a2-3)GalNAc = target: Neu5Ac(a2-3)GalNAc
# Outline: as §1
# [32] = target: Neu5Ac(a2-3)GalNAc(b1-4)GlcNAc
# Outline: as §1
# [33] = target: Neu5Ac(a2-3)[GalNAc(b1-4)]Gal(b1-4)Glc
# Outline: as §1
# [34] = target: Neu5Ac(a2-3)[GalNAc(b1-4)]Gal(b1-4)GlcNAc
# Outline: as §1
# [35] = target: Neu5Ac(a2-3)[GalNAc(b1-4)]Gal(b1-4)GlcNAc(b1-3)GalNAc
# Outline: as §1
# [36] = target: Neu5Ac(a2-3)[Neu5Ac(a2-6)]GalNAc
# Outline: as §1
# Neu5Ac(a2-6)Gal = target: Neu5Ac(a2-6)Gal
# Outline: as §1
# [37] = target: Neu5Ac(a2-6)Gal(b1-3)GlcNAc(b1-3)[Gal(b1-4)GlcNAc(b1-6)]Gal(b1-4)Glc
# Outline: as §1
# Neu5Ac(a2-6)Gal(b1-4)Glc = target: Neu5Ac(a2-6)Gal(b1-4)Glc
# Outline: as §1
# [38] = target: Neu5Ac(a2-6)Gal(b1-4)GlcNAc
# Outline: as §1
# [39] = target: Neu5Ac(a2-6)Gal(b1-4)GlcNAc(b1-2)Man
# Outline: as §1
# [40] = target: Neu5Ac(a2-6)Gal(b1-4)GlcNAc(b1-2)Man(a1-3)Man(b1-4)GlcNAc(b1-4)GlcNAc
# Outline: as §1
# [41] = target: Neu5Ac(a2-6)Gal(b1-4)GlcNAc(b1-2)Man(a1-3)[Gal(b1-4)GlcNAc(b1-2)Man(a1-6)]Man(b1-4)GlcNAc(b1-4)GlcNAc
# Outline: as §1
# [42] = target: Neu5Ac(a2-6)Gal(b1-4)GlcNAc(b1-2)Man(a1-3)[GlcNAc(b1-2)Man(a1-6)]Man(b1-4)GlcNAc(b1-4)GlcNAc
# Outline: as §1
binder,measurement,setting,value
"Siglec-9 (Homo sapiens), Q9Y336 (protein) MLLLLLPLLWGRERAEGQTSKLLTMQSSVTVQEGLCVHVPCSFSYPSHGWIYPGPVVHGYWFREGANTDQDAPVATNNPARAVWEETRDRFHLLGDPHTKNCTLSIRDARRSDAGRYFFRMEKGSIKWNYKHHRLSVNVTALTHRPNILIPGTLESGCPQNLTCSVPWACEQGTPPMISWIGTSVSPLDPSTTRSSVLTLIPQPQDHGTSLTCQVTFPGASVTTNKTVHLNVSYPPQNLTMTVFQGDGTVSTVLGNGSSLSLPEGQSLRLVCAVDAVDSNPPARLSLSWRGLTLCPSQPSNPGVLELPWVHLRDAAEFTCRAQNPLGSQQVYLNVSLQSKATSGVTQGVVGGAGATALVFLSFCVIFVVVRSCRKKSARPAAGVGDTGIEDANAVRGSASQGPLTEPWAEDSPPDQPPPASARSSVGEGELQYASLSFQMVKPWDSRGQEATDTEYSEIKIHR",glycan array binding signal (z-score),[1],-0.38
same,glycan array binding signal (z-score),[2],0.336
same,glycan array binding signal (z-score),[3],0.007
same,glycan array binding signal (z-score),[4],-0.042
same,glycan array binding signal (z-score),[5],0.023
same,glycan array binding signal (z-score),[6],-0.278
same,glycan array binding signal (z-score),[7],-0.004
same,glycan array binding signal (z-score),[8],-0.006
same,glycan array binding signal (z-score),[9],0.033
same,glycan array binding signal (z-score),[10],0.156
same,glycan array binding signal (z-score),[11],-0.124
same,glycan array binding signal (z-score),[12],-0.187
same,glycan array binding signal (z-score),[13],-0.145
same,glycan array binding signal (z-score),[14],-0.009
same,glycan array binding signal (z-score),[15],0.42
same,glycan array binding signal (z-score),[16],0.569
same,glycan array binding signal (z-score),[17],0.247
same,glycan array binding signal (z-score),[18],0.033
same,glycan array binding signal (z-score),[19],0.207
same,glycan array binding signal (z-score),[20],2.21
same,glycan array binding signal (z-score),[21],1.14
same,glycan array binding signal (z-score),[22],14.8
same,glycan array binding signal (z-score),[23],0.641
same,glycan array binding signal (z-score),[24],-0.033
same,glycan array binding signal (z-score),[25],-0.007
same,glycan array binding signal (z-score),[26],-0.122
same,glycan array binding signal (z-score),[27],-0.125
same,glycan array binding signal (z-score),[28],-0.088
same,glycan array binding signal (z-score),[29],16.8
same,glycan array binding signal (z-score),[30],-0.043
same,glycan array binding signal (z-score),[31],-0.311
same,glycan array binding signal (z-score),Neu5Ac(a2-3)GalNAc,-0.183
same,glycan array binding signal (z-score),[32],0.468
same,glycan array binding signal (z-score),[33],-0.131
same,glycan array binding signal (z-score),[34],-0.277
same,glycan array binding signal (z-score),[35],0.047
same,glycan array binding signal (z-score),[36],-0.051
same,glycan array binding signal (z-score),Neu5Ac(a2-6)Gal,0.007
same,glycan array binding signal (z-score),[37],-0.316
same,glycan array binding signal (z-score),Neu5Ac(a2-6)Gal(b1-4)Glc,0.192
same,glycan array binding signal (z-score),[38],0.498
same,glycan array binding signal (z-score),[39],-0.006
same,glycan array binding signal (z-score),[40],0.17
same,glycan array binding signal (z-score),[41],-0.118
same,glycan array binding signal (z-score),[42],-0.331
